Experimental data published in patent US20200247856A1 (SHIRE HUMAN GENETIC THERAPIES, published 2020).

T1: Myostatin (R&D Systems, Catalogue number 788-G8-010/CF) (UniProt O14793 267-375)
T1 sequence (looked up): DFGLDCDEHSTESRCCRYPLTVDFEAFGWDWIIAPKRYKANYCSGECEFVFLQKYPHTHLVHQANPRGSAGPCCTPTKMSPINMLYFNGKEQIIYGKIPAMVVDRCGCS

T2: Activin A (R&D Systems, Catalog number 338-AC-050 CF) (UniProt P08476 311-426)
T2 sequence (looked up): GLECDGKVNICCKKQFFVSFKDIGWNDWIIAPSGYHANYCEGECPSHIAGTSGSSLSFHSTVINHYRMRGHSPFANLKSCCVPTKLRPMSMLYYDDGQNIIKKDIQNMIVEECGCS

T3: BMP-10 (R&D Systems, Catalogue number 2926-BP-025CF) (UniProt O95393 317-424)
T3 construct: Bought protein; also called bone morphogenic protein-10
T3 sequence (looked up): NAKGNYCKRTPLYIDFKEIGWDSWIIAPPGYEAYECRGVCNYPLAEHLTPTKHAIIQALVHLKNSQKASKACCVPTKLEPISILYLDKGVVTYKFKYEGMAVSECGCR

T4: BMP-9 (R&D Systems, Catalogue number 3209-BP-010CF) (UniProt Q9UK05 320-429)
T4 construct: Bought protein; also called bone morphogenic protein-9
T4 sequence (looked up): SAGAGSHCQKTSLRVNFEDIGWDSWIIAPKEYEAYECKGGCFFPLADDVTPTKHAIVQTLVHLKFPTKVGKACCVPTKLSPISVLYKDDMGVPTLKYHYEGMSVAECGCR


Tests used:
[1] = target: T1, Myostatin (R&D Systems, Catalogue …); experiment: cell-based or functional assay
[2] = target: T2, Activin A (R&D Systems, Catalog number …); experiment: cell-based or functional assay
[3] = target: T3, BMP-10 (R&D Systems, Catalogue number …); experiment: BIAcore SPR; fusion captured on anti-human Fc; BMP-10 as analyte
[4] = target: T1, Myostatin (R&D Systems, Catalogue …); experiment: BIAcore SPR; fusion captured on anti-human Fc; myostatin as analyte (5-0.31 nM)
[5] = target: T4, BMP-9 (R&D Systems, Catalogue number …); experiment: BIAcore SPR; fusion captured on anti-human Fc; BMP-9 as analyte

| Myostatin IC50 (nM), luciferase gene reporter assay (Smad3, A204 cells) [1] [nM] | Activin A IC50 (nM), luciferase gene reporter assay (Smad3, A204 cells) [2] [nM] | binding result [3] | Kd [4] [nM] | binding result [5] | Binder |
| --- | --- | --- | --- | --- | --- |
| 0.6 | 1 | – | – | – | FS315K(81,82)E-hFcLALA (Fc fusion) GNCWLRQAKNGRCQVLYKTELSKEECCSTGRLSTSWTEEDVNDNTLFKWMIFNGGAPNCIPCKETCENVDCGPGKKCRMNEENKPRCVCAPDCSNITWKGPVCGLDGKTYRNECALLKARCKEQPELEVQYQGRCKKTCRDVFCPGSSTCVVDQTNNAYCVTCNRICPEPASSEQYLCGNDGVTYSSACHLRKATCLLGRSIGLAYEGKCIKAKSCEDIQCTGGKKCLWDFKVGRGRCSLCDELCPDSKSDEPVCASDNATYASECAMKEAACSSGVLLEVKHSGSCNSISEDTEEEEEDEDQDYSFPISSILEW[no letters for human IgG1 Fc with changes] |
| 0.5 | 0.6 | – | – | – | FS315R78E/K(82,84)E-hFcLALA (Fc fusion) GNCWLRQAKNGRCQVLYKTELSKEECCSTGRLSTSWTEEDVNDNTLFKWMIFNGGAPNCIPCKETCENVDCGPGKKCEMNKENEPRCVCAPDCSNITWKGPVCGLDGKTYRNECALLKARCKEQPELEVQYQGRCKKTCRDVFCPGSSTCVVDQTNNAYCVTCNRICPEPASSEQYLCGNDGVTYSSACHLRKATCLLGRSIGLAYEGKCIKAKSCEDIQCTGGKKCLWDFKVGRGRCSLCDELCPDSKSDEPVCASDNATYASECAMKEAACSSGVLLEVKHSGSCNSISEDTEEEEEDEDQDYSFPISSILEW[no letters for human IgG1 Fc with changes] |
| 1 | 1.3 | – | – | – | FS315G74N/K76T/P85T-hFcLALA (Fc fusion) GNCWLRQAKNGRCQVLYKTELSKEECCSTGRLSTSWTEEDVNDNTLFKWMIFNGGAPNCIPCKETCENVDCGPNKTCRMNKKNKTRCVCAPDCSNITWKGPVCGLDGKTYRNECALLKARCKEQPELEVQYQGRCKKTCRDVFCPGSSTCVVDQTNNAYCVTCNRICPEPASSEQYLCGNDGVTYSSACHLRKATCLLGRSIGLAYEGKCIKAKSCEDIQCTGGKKCLWDFKVGRGRCSLCDELCPDSKSDEPVCASDNATYASECAMKEAACSSGVLLEVKHSGSCNSISEDTEEEEEDEDQDYSFPISSILEW[no letters for human IgG1 Fc with changes] |
| 0.7 | 1.1 | – | – | – | FS315K(82,84)E-hFcLALA (Fc fusion) GNCWLRQAKNGRCQVLYKTELSKEECCSTGRLSTSWTEEDVNDNTLFKWMIFNGGAPNCIPCKETCENVDCGPGKKCRMNKENEPRCVCAPDCSNITWKGPVCGLDGKTYRNECALLKARCKEQPELEVQYQGRCKKTCRDVFCPGSSTCVVDQTNNAYCVTCNRICPEPASSEQYLCGNDGVTYSSACHLRKATCLLGRSIGLAYEGKCIKAKSCEDIQCTGGKKCLWDFKVGRGRCSLCDELCPDSKSDEPVCASDNATYASECAMKEAACSSGVLLEVKHSGSCNSISEDTEEEEEDEDQDYSFPISSILEW[no letters for human IgG1 Fc with changes] |
| – | – | no binding (tested: 25-0.190 nM) | 0.0244 | no binding (tested: 25-0.190 nM) | FS315C66A/K75N/C77T-hFcLALA (Fc fusion, Hyperglycosylation variant) GNCWLRQAKNGRCQVLYKTELSKEECCSTGRLSTSWTEEDVNDNTLFKWMIFNGGAPNCIPCKETAENVDCGPGNKTRMNKKNKPRCVCAPDCSNITWKGPVCGLDGKTYRNECALLKARCKEQPELEVQYQGRCKKTCRDVFCPGSSTCVVDQTNNAYCVTCNRICPEPASSEQYLCGNDGVTYSSACHLRKATCLLGRSIGLAYEGKCIKAKSCEDIQCTGGKKCLWDFKVGRGRCSLCDELCPDSKSDEPVCASDNATYASECAMKEAACSSGVLLEVKHSGSCNSISEDTEEEEEDEDQDYSFPISSILEW[no letters for human IgG1 Fc with changes] |
| 0.6 | 0.6 | – | – | – | FS315K(76,81,82)E/V88E-hFcLALA (Fc fusion) GNCWLRQAKNGRCQVLYKTELSKEECCSTGRLSTSWTEEDVNDNTLFKWMIFNGGAPNCIPCKETCENVDCGPGKECRMNEENKPRCECAPDCSNITWKGPVCGLDGKTYRNECALLKARCKEQPELEVQYQGRCKKTCRDVFCPGSSTCVVDQTNNAYCVTCNRICPEPASSEQYLCGNDGVTYSSACHLRKATCLLGRSIGLAYEGKCIKAKSCEDIQCTGGKKCLWDFKVGRGRCSLCDELCPDSKSDEPVCASDNATYASECAMKEAACSSGVLLEVKHSGSCNSISEDTEEEEEDEDQDYSFPISSILEW[no letters for human IgG1 Fc with changes] |
| 1.5 | 2.1 | no binding (tested: 25-0.190 nM) | 0.0064 | no binding (tested: 25-0.190 nM) | FS315C66S/K75N/C77T-hFcLALA (Fc fusion, Hyperglycosylation variant) GNCWLRQAKNGRCQVLYKTELSKEECCSTGRLSTSWTEEDVNDNTLFKWMIFNGGAPNCIPCKETSENVDCGPGNKTRMNKKNKPRCVCAPDCSNITWKGPVCGLDGKTYRNECALLKARCKEQPELEVQYQGRCKKTCRDVFCPGSSTCVVDQTNNAYCVTCNRICPEPASSEQYLCGNDGVTYSSACHLRKATCLLGRSIGLAYEGKCIKAKSCEDIQCTGGKKCLWDFKVGRGRCSLCDELCPDSKSDEPVCASDNATYASECAMKEAACSSGVLLEVKHSGSCNSISEDTEEEEEDEDQDYSFPISSILEW[no letters for human IgG1 Fc with changes] |

More lines, now with the values behind:

| Binder | Myostatin IC50 (nM), luciferase gene reporter assay (Smad3, A204 cells) [1] [nM] | Activin A IC50 (nM), luciferase gene reporter assay (Smad3, A204 cells) [2] [nM] | binding result [3] | Kd [4] [nM] | binding result [5] |
| --- | --- | --- | --- | --- | --- |
| FS315R78E/K82E-hFcLALA (Fc fusion) GNCWLRQAKNGRCQVLYKTELSKEECCSTGRLSTSWTEEDVNDNTLFKWMIFNGGAPNCIPCKETCENVDCGPGKKCEMNKENKPRCVCAPDCSNITWKGPVCGLDGKTYRNECALLKARCKEQPELEVQYQGRCKKTCRDVFCPGSSTCVVDQTNNAYCVTCNRICPEPASSEQYLCGNDGVTYSSACHLRKATCLLGRSIGLAYEGKCIKAKSCEDIQCTGGKKCLWDFKVGRGRCSLCDELCPDSKSDEPVCASDNATYASECAMKEAACSSGVLLEVKHSGSCNSISEDTEEEEEDEDQDYSFPISSILEW[no letters for human IgG1 Fc with changes] | – | 1 | – | – | – |
| FS315K(76,81,82)E-hFcLALA (Fc fusion) GNCWLRQAKNGRCQVLYKTELSKEECCSTGRLSTSWTEEDVNDNTLFKWMIFNGGAPNCIPCKETCENVDCGPGKECRMNEENKPRCVCAPDCSNITWKGPVCGLDGKTYRNECALLKARCKEQPELEVQYQGRCKKTCRDVFCPGSSTCVVDQTNNAYCVTCNRICPEPASSEQYLCGNDGVTYSSACHLRKATCLLGRSIGLAYEGKCIKAKSCEDIQCTGGKKCLWDFKVGRGRCSLCDELCPDSKSDEPVCASDNATYASECAMKEAACSSGVLLEVKHSGSCNSISEDTEEEEEDEDQDYSFPISSILEW[no letters for human IgG1 Fc with changes] | – | 0.7 | – | – | – |
| FS315K82E-hFcLALA (Fc fusion) GNCWLRQAKNGRCQVLYKTELSKEECCSTGRLSTSWTEEDVNDNTLFKWMIFNGGAPNCIPCKETCENVDCGPGKKCRMNKENKPRCVCAPDCSNITWKGPVCGLDGKTYRNECALLKARCKEQPELEVQYQGRCKKTCRDVFCPGSSTCVVDQTNNAYCVTCNRICPEPASSEQYLCGNDGVTYSSACHLRKATCLLGRSIGLAYEGKCIKAKSCEDIQCTGGKKCLWDFKVGRGRCSLCDELCPDSKSDEPVCASDNATYASECAMKEAACSSGVLLEVKHSGSCNSISEDTEEEEEDEDQDYSFPISSILEW[no letters for human IgG1 Fc with changes] | – | 0.6 | – | – | – |
| FS315K(76,81,82)A-hFcLALA (Fc fusion) GNCWLRQAKNGRCQVLYKTELSKEECCSTGRLSTSWTEEDVNDNTLFKWMIFNGGAPNCIPCKETCENVDCGPGKACRMNAANKPRCVCAPDCSNITWKGPVCGLDGKTYRNECALLKARCKEQPELEVQYQGRCKKTCRDVFCPGSSTCVVDQTNNAYCVTCNRICPEPASSEQYLCGNDGVTYSSACHLRKATCLLGRSIGLAYEGKCIKAKSCEDIQCTGGKKCLWDFKVGRGRCSLCDELCPDSKSDEPVCASDNATYASECAMKEAACSSGVLLEVKHSGSCNSISEDTEEEEEDEDQDYSFPISSILEW[no letters for human IgG1 Fc with changes] | – | 0.7 | – | – | – |
| FS315K75N/C77T/K82T-hFcLALA (Fc fusion, Hyperglycosylation variant) GNCWLRQAKNGRCQVLYKTELSKEECCSTGRLSTSWTEEDVNDNTLFKWMIFNGGAPNCIPCKETCENVDCGPGNKTRMNKTNKPRCVCAPDCSNITWKGPVCGLDGKTYRNECALLKARCKEQPELEVQYQGRCKKTCRDVFCPGSSTCVVDQTNNAYCVTCNRICPEPASSEQYLCGNDGVTYSSACHLRKATCLLGRSIGLAYEGKCIKAKSCEDIQCTGGKKCLWDFKVGRGRCSLCDELCPDSKSDEPVCASDNATYASECAMKEAACSSGVLLEVKHSGSCNSISEDTEEEEEDEDQDYSFPISSILEW[no letters for human IgG1 Fc with changes] | 0.7 | 1.1 | no binding (tested: 25-0.190 nM) | 0.0403 | – |
